# Assay results reported in PubChem BioAssay AID894 (National Center for Advancing Translational Sciences (NCATS), 2007).
# “And” between values parts separate entries of the source, which are not always exact repeats. Equal values may be shown once. In all, about 150,000 compounds went through this assay and about 6,500 (4.3%) were called active. This list was built around the results that the source calls inconclusive (neither active nor inactive); the mix of calls is not that of the screen. Calls follow the shape of the dose curve; as a rule, active = well fitted inhibition curve with a large enough effect (not every such curve was filed as active); inconclusive = small, poorly fitted or top-dose-only effect, or another doubt; inactive = no such curve, though single readings can be large or run the other way. Potencies of inconclusive entries are doubtful fits and often do not repeat.
# Target: 15-hydroxyprostaglandin dehydrogenase [NAD(+)] (Homo sapiens) (UniProt P15428)
# Sequence of UniProt P15428 (P15428 whole entry, looked up): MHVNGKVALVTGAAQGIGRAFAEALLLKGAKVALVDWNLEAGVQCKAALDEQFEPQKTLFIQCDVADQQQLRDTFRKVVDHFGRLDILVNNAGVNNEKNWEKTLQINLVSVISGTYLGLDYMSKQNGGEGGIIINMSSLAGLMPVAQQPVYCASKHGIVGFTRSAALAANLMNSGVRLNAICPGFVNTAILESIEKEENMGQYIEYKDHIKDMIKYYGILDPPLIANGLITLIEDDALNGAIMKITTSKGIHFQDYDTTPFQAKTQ
# Test: qHTS Assay for Inhibitors of HPGD (15-Hydroxyprostaglandin Dehydrogenase)
# Conditions: purified HPGD, NADH fluorescence kinetic, PGE2 substrate; activity change, negative = inhibition: stronger effect = lower value
# In short: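 20 nM HPGD preincubated 15 min at room temperature with compound in 50 mM Tris-HCl pH 8, 0.01% Tween 20. Started with 1 mM NAD+ and 30 uM prostaglandin E2; NADH fluorescence (360/450 nm) read 5 times over 30-s intervals, last minus first.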
# % is scaled to controls: 0 for no effect and ±100 for the full control effect; potency is read from the fitted curve at half-maximal effect; tags tell the direction and shape of the fitted curve.
SMILES,Potency,"activity change, negative = inhibition"
Cc1noc(C)c1-c1nc(Nc2ccncc2)c2ccccc2n1,"inconclusive: 15.8 µM [inhibitor, partial curve]",–
Cc1csc2c(C#N)c(=O)c3c(n12)CCC3,–,inactive: -23.5%
Cc1cc(=O)oc2cc(OCC(=O)N3CCOCC3)ccc12,"inconclusive: 28.2 µM [inhibitor, partial curve]",–
O=C(N/N=C/c1c[nH]c2ccccc12)c1cccc([N+](=O)[O-])c1,–,inactive: -27.2%
CC1CCCCN1C(=O)CSc1nc(N)cc(=O)[nH]1 (configuration not stated),–,inactive: -12.2%
N=C1S/C(=C\c2cn[nH]c2-c2ccc(F)cc2)C(=O)N1c1ccccc1F,active: 12.6 µM,–
CCOC(=O)c1[nH]c(C)c(/C(O)=C2\C(=O)C(=O)N(CCCN(C)C)C2c2cccnc2)c1C (configuration not stated),–,inactive: -4.82%
CN(C(=O)c1ccc2c(Cl)c3c(nc2c1)CCC3)c1ccccc1,active: 4.47 µM,–
N#Cc1c(NC(=O)c2ccccc2Cl)n(Cc2ccccc2)c2nc3ccccc3nc12,"inconclusive: 14.1 µM [inhibitor, partial curve]",–
CC[n+]1c(/C=C(\C)SC)sc2ccccc21,active: 28.2 µM,–
O=C(CSc1nnc(-c2ccncc2)n1-c1ccccc1)N1CCN(c2ccc(Cl)cc2)CC1,–,inactive: 2.32%
COc1cc(NC(=O)CCN2CCN(Cc3ccccc3)CC2)cc(OC)c1,–,inactive: -5.87%
Cc1cc(NC(=O)CSc2ccc3nnc(-c4ccccc4)n3n2)no1,"inconclusive: 20 µM [inhibitor, partial curve]",–
O=C(c1ccco1)N1CCN(C(=O)C(Cc2ccccc2)NS(=O)(=O)c2cccs2)CC1 (configuration not stated),–,inactive: -8.41%
Cc1ccccc1C(=O)NCc1nnc(SCC(=O)N2c3ccccc3Sc3ccccc32)n1C,–,inactive: -4.82%
CCN(CC)CCn1c(-c2ccccc2)nc2c(N3CCOCC3)nc(C)nc21,"inconclusive: 22.4 µM [inhibitor, single point]",–
Cc1ccc(N2CC(C(=O)OCc3ccccc3)CC2=O)cc1 (configuration not stated),"inconclusive: 15.8 µM [inhibitor, partial curve]",–
COCCN(Cc1cc2cc3c(cc2nc1Cl)OCO3)C(=O)Nc1ccccc1OC,"inconclusive: 35.5 µM [inhibitor, single point]",–
Cc1cccn2c(=O)c3cc(C(=O)NCc4ccco4)c(=N)n(C(C)C)c3nc12,"inconclusive: 25.1 µM [inhibitor, partial curve]",–
O=c1cc(-c2ccccc2)[nH]c2ccc(F)cc12,"inconclusive: 12.6 µM [inhibitor, partial curve] and inconclusive: 35.5 µM [inhibitor, partial curve]",–
CCCn1cnc2c(cnn2-c2ccc(F)cc2)c1=O,"inconclusive: 22.4 µM [inhibitor, partial curve]",–
CCCC(=O)Nc1ccc2oc(-c3cccnc3)nc2c1,"inconclusive: 25.1 µM [inhibitor, partial curve]",–
COc1ccccc1CN1CCCC2(CCN(S(C)(=O)=O)CC2)C1,–,inactive: 0.145%
Cc1ccc(-c2cc(C(=O)Nc3nccs3)c3ccccc3n2)o1,"inconclusive: 7.94 µM [inhibitor, partial curve]",–

SMILES,Potency,"activity change, negative = inhibition"
COc1ccc2c(c1)c(=O)cc(C)n2CC(=O)NCc1ccco1,"inconclusive: 6.31 µM [inhibitor, single point]",–
Cc1nnc(Cl)c2nn(-c3ccccc3)c(C)c12,"inconclusive: 44.7 µM [inhibitor, partial curve]",–
O=C(O)c1[nH]c2ccccc2c1-c1ccccc1,"inconclusive: 22.4 µM [inhibitor, partial curve]",–
COc1ccc2nc(N3CCC(O)CC3)c(C#N)cc2c1,"inconclusive: 28.2 µM [inhibitor, partial curve]",–
CCCc1[nH][nH]c(=O)c1C(c1cccc(Cl)c1)C(C#N)C#N (configuration not stated),active: 15.8 µM,–
O=C(Nc1cnc2ccccc2c1)c1cccc(-n2cnnn2)c1,"inconclusive: 31.6 µM [inhibitor, partial curve]",–
Cc1ccc(CNC(=O)[C@@H]2C[C@H]2[C@@H](NP(=O)(c2ccccc2)c2ccccc2)c2ccccc2)o1,–,inactive: -13.9%
CCN=C1S/C(=C\c2ccc(OC)c(OCC)c2)C(=O)N1CC,–,inactive: -5.77%
CN(C)c1ncc2ncc(=O)n(CCC#N)c2n1,"inconclusive: 10 µM [inhibitor, partial curve]",–
O=c1oc2ccccc2nc1/C=C(O)/C=C/c1ccc(F)cc1,"inconclusive: 25.1 µM [inhibitor, partial curve, poor fit]",–
CC1(C)CC(=O)c2c(nn(-c3ccccc3)c2-c2ccncc2)C1,–,inactive: -11%
O=C(NCc1cccs1)c1cnc2sccn2c1=O,"inconclusive: 20 µM [inhibitor, partial curve]",–
C(=C\c1ccccc1)/CN1CCN(c2ncnc3c2oc2ccccc23)CC1,"inconclusive: 31.6 µM [inhibitor, partial curve]",–
Cn1ncc(Cl)c1C(=O)Nc1cccc(Cl)c1,active: 12.6 µM,–
CCOc1ccc(C(=O)N2CCCCCC2)cc1,active: 2 µM,–
O=C(Cc1ccc(-n2c(=O)c3sccc3n(Cc3ccc(F)cc3)c2=O)cc1)NCc1ccco1,–,inactive: -7.92%
CCN1CCC(=NNC(=O)CC23CC4CC(CC(C4)C2)C3)CC1,–,inactive: -12.8%
Cc1ccc(NC(=O)c2sccc2C)cc1[N+](=O)[O-],"inconclusive: 28.2 µM [inhibitor, single point]",–
Cc1cccc(C(=O)N(NC(=O)Oc2ccccc2)C(C)(C)C)c1,–,inactive: -8.91%
Cc1ccc(-c2nn(C(C)(C)C)c3ncnc(N)c23)cc1,"inconclusive: 31.6 µM [inhibitor, partial curve]",–
COc1cccc(C(=O)O/N=C/c2ccc(Sc3ccc(C)cc3)nc2)c1,"inconclusive: 28.2 µM [inhibitor, partial curve]",–
Nc1ncnc2c1nc(Cl)n2C1OC(CO)C(O)C1O (configuration not stated),–,inactive: -2.48%
Cc1ccc(S(=O)(=O)N(CC(O)CN2CCOCC2)c2cc(Cl)ccc2Cl)cc1 (configuration not stated),"inconclusive: 39.8 µM [inhibitor, partial curve, poor fit]",–
Cc1nn(Cc2ccccc2)c(C)c1C(=O)OCC(=O)c1cc(C)n(CC(F)(F)F)c1C,"inconclusive: 25.1 µM [inhibitor, partial curve]",–

SMILES,Potency,"activity change, negative = inhibition"
CC(C)C(=O)c1cc2c(cc1NC(=O)Nc1cccc3ccccc13)OCCO2,"inconclusive: 39.8 µM [inhibitor, partial curve]",–
c1ccc(Cc2nn3c(C4COc5ccccc5O4)nnc3s2)cc1 (configuration not stated),active: 8.91 µM,–
COc1ccc(C(=O)Nc2ccccc2C(=O)N/N=C/c2ccc(O)c(OC)c2)cc1,"inconclusive: 35.5 µM [inhibitor, single point]",–
Cn1c(/C(C#N)=C(\O)COc2ccc3ccccc3c2)nc2ccccc21,"inconclusive: 20 µM [inhibitor, partial curve]",–
COc1ccc(-c2ccc(/C=N/N3C(=O)C4C5C=CC(C6CC56)C4C3=O)o2)c([N+](=O)[O-])c1 (configuration not stated),active: 25.1 µM,–
CN(C)C(=O)c1cc([N+](=O)[O-])cc([N+](=O)[O-])c1N(C)C,"inconclusive: 31.6 µM [inhibitor, single point]",–
CCc1c(C)nc2cc(C)[nH]n2c1=O,"inconclusive: 20 µM [inhibitor, single point]",–
COc1ccc(-c2nnc(COc3ccc4ccccc4c3)o2)cc1OC,"inconclusive: 31.6 µM [inhibitor, partial curve]",–
O=C(c1cccc(COc2cccc3ccccc23)c1)N1CCCC1,active: 20 µM,–
O=C1C(=O)N(CNc2cccnc2)c2ccccc21,active: 15.8 µM,–
COc1ccc(-c2cc(C(F)(F)F)nc(-n3cc(Cl)cn3)n2)cc1,"inconclusive: 28.2 µM [inhibitor, partial curve]",–
CCCCN1C(=O)/C(=c2\sc3nc(=O)c(-c4ccccc4)nn3c2=O)c2ccccc21,active: 25.1 µM,–
O=C(/C=C/c1ccc2c(c1)OCO2)c1ccccc1,–,inactive: -9.77%
C=CCn1c(O)c(N=NC(=O)OC(C)(C)C)c2ccccc21,"inconclusive: 17.8 µM [inhibitor, single point]",–
Cc1cc([N+](=O)[O-])c2[nH]c(C(=O)N/N=C/c3ccccc3C(=O)O)c(-c3ccccc3)c2c1,"inconclusive: 35.5 µM [inhibitor, partial curve]",–
O=C1CCCC/C1=C\Nc1ccccc1C(=O)O,"inconclusive: 22.4 µM [inhibitor, partial curve]",–
CCOC(=O)c1ccc(NC(=O)Cn2nnc(-c3ccc(F)cc3)n2)cc1,–,inactive: -0.0294%
Cc1ccc(-n2c(C)cc(C(=S)N3CCOCC3)c2C)cc1C,active: 5.01 µM,–
Cc1ccc(S(=O)(=O)Nc2ccc(-c3nc4ccc(C)cc4s3)cc2)cc1,"inconclusive: 31.6 µM [inhibitor, partial curve]",–
C=CCn1c(=S)[nH]c2nc3c(cc2c1=O)CCCC3,–,inactive: -15.2%
COc1cccc(NC(=O)Cc2cccs2)c1,"inconclusive: 20 µM [inhibitor, partial curve]",–
Cc1cc(C)n(-c2nc3sc4c(c3c3nnc(SCC(N)=O)n23)CC(C)(C)OC4)n1,–,inactive: -28.4%
CC(C)(C)NC(=O)CSc1nncn1NCc1cccc2ccccc12,–,inactive: -0.484%
O=C(CSc1nnc(-c2ccco2)n1Cc1ccccc1)NC(=O)NCc1ccccc1,–,inactive: -10%
